Measurements from the supplement of paper PMC3334620.
Whole data set: some 33,000 sequences, median “E-score (-0.5 to 0.5)” near -0.035, cut for the highest 2% near 0.34. Some of the results follow.

Target: T1, Mot3 (UniProt P54785)
T1 sequence: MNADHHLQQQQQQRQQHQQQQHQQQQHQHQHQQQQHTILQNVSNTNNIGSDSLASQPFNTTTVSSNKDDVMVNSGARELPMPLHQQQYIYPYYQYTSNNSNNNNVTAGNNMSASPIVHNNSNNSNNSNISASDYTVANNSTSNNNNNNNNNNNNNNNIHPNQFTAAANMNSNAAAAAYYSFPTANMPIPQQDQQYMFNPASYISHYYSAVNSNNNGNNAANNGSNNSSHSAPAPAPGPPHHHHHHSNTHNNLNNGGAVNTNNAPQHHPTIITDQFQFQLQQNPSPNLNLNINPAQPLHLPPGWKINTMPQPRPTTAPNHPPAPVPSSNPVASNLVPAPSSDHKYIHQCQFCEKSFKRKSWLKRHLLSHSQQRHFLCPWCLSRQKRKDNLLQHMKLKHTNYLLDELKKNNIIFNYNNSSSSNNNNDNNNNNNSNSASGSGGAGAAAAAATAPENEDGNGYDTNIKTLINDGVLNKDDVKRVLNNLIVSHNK
Assay: PBM E-score (8-mer binding enrichment) (E-score (-0.5 to 0.5)); higher = stronger / more preferred TF binding; most listed sequences are background and not binding sites
Settings: protein concentration: 200 nM; construct: GST-full length
Procedure, shortened: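 Detection of bound protein used fluorescent anti-GST, with scans normalised by masliner. The proteins were GST-tagged yeast transcription factors applied at about 100-200 nM to universal all-10-mer Agilent arrays made double-stranded by primer extension. Each ungapped eight-base word, pooled with its reverse complement, was scored with an E-score from the Universal PBM Analysis Suite.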

| Sequence | PBM E-score |
| --- | --- |
| AGAATGGA | -0.0583 |
| CCAATTTA | 0.13 |
| AGCCTGCA | 0.344 |
| CTATATAG | -0.00389 |
| ATTGCCGA | -0.0541 |
| AACGCCTC | -0.0755 |
| CCAGTAAC | -0.185 |
| GGTGTACA | 0.168 |
| CTAAAGTA | 0.0618 |
| CAGCTCTA | -0.168 |
| CTATGATA | 0.00157 |
| GCCCCGAA | -0.311 |
| ACTTCTTA | 0.0534 |
| TACTGAGA | -0.0385 |
| GTGCAGGA | 0.153 |
| AAGTTCCG | 0.0427 |
| AAACGGGA | -0.197 |
| AAGCTCCT | -0.11 |
| AAAAATCG | -0.229 |
| CGCTACCG | -0.206 |
| AGCATAGC | -0.0866 |
| GGTCTCTA | -0.232 |
| GGAGTAAC | -0.205 |
| AGCGATCA | -0.201 |
| CAGCGCGA | -0.0906 |

| Sequence | PBM E-score |
| --- | --- |
| TGCCGGCA | 0.113 |
| CATGGGGG | -0.117 |
| GCATCCCA | -0.213 |
| GGTTGGTA | -0.0527 |
| AAAGCAGG | -0.0323 |
| AGAGGGAG | -0.253 |
| AAAATCTT | -0.0412 |
| GGGCATTA | -0.195 |
| CTTAGCTC | -0.0223 |
| AATTACCT | 0.276 |
| CCTTCCAC | 0.0694 |
| GCTCACTA | -0.0157 |
| CTTAGACC | -0.0264 |
| ACCGGCAC | 0.0245 |
| ACAGTGAG | 0.0411 |
| GGGGGGCA | -0.276 |
| GGCCGTTA | -0.266 |
| ACCCCAGT | -0.0507 |
| AGATGATG | -0.191 |
| CAGGTAGA | -0.0121 |
| CTTCCATA | -0.0345 |
| CAGGAAGG | -0.0907 |
| GTCGTTTA | 0.175 |
| CAGTCTAA | -0.131 |
| TCGGTAGA | -0.153 |

| Sequence | PBM E-score |
| --- | --- |
| GGCTAGCC | -0.42 |
| AGTTAACG | 0.164 |
| ACGGGCTG | -0.186 |
| TGACCCCA | -0.144 |
| CGCGGTTC | 0.111 |
| TAAGCGTA | -0.0152 |
| GAGGCACA | 0.47 |
| AGGAGGCG | -0.163 |
| ATGGTAGC | 0.0672 |
| GACGAACC | -0.0482 |
| ACTTGTAC | 0.156 |
| CCTCTTCC | -0.103 |
| CCAGCGCA | -0.175 |
| AAGGTACC | 0.419 |
| GTTACAAA | 0.223 |
| TACCCTCA | -0.17 |
| GCCCAGTA | -0.0683 |
| AGGGGCTC | -0.124 |
| ATCCACAA | 0.0047 |
| CACGTCGC | -0.0751 |
| GCAGGAGC | 0.0355 |
| GAGATATA | -0.0593 |
| ATTCCTTC | 0.0162 |
| AAGGCGAC | 0.00796 |
| CGTTGTGC | 0.111 |

| Sequence | PBM E-score |
| --- | --- |
| CTATCGGC | -0.167 |
| CACACTCG | 0.0595 |
| CAGCTGAC | 0.033 |
| ACGGCAGT | -0.0853 |
| GATCAGAC | -0.0844 |
| AAGCCTCG | -0.129 |
| CCTTGTAA | 0.392 |
| CCGCCCGC | -0.305 |
| ATTATTGC | 0.201 |
| CCCGGCTC | -0.33 |
| CGAGCGTC | -0.261 |
| CCTTCGAA | 0.0727 |
| AGACTCTA | -0.162 |
| CAATCAAA | 0.0454 |
| AACAATCC | 0.142 |
| CCCCTGTA | 0.115 |
| CGGCTGTC | -0.232 |
| ACACTAAT | 0.0509 |
| TAGATTAA | 0.0794 |
| GGAAACAA | 0.0425 |
| AATACGGC | 0.0771 |
| AGTTGTGA | 0.00694 |
| ACGAATAC | 0.18 |
| CCAAACAA | -0.0179 |
| ACACCATG | 0.161 |

| Sequence | PBM E-score |
| --- | --- |
| CCAGAAAC | -0.155 |
| CTTATACC | -0.042 |
| AGTCTAAA | -0.158 |
| ACGCCAGT | -0.0132 |
| ACCAACTC | -0.12 |
| GTTTCGTA | 0.0604 |
| CTTCCGAC | -0.0565 |
| GGGGCCCC | -0.33 |
| ATTATAAT | 0.0317 |
| CTTGTGGC | -0.206 |
| GGGTCTTA | -0.16 |
| CACGGCAC | 0.132 |
| ACAATCAG | 0.152 |
| CACTTAAC | 0.0945 |
| ACCTCCGT | -0.0274 |
| GTACGTTA | 0.234 |
| AACCCAAG | 0.018 |
| CAGTAGGC | 0.219 |
| AGTACGAT | -0.0791 |
| CGGGGCGA | -0.151 |
| CTCGAGAC | -0.0218 |
| ATCAACTC | 0.00418 |
| TGTACGAA | 0.17 |
| CCGCGCGA | -0.165 |
| GTTATATA | 0.187 |

| Sequence | PBM E-score |
| --- | --- |
| AAGTTGCA | 0.00119 |
| GAAGCAAA | -0.00288 |
| AAGCGGCA | -0.0957 |
| ACATGTGG | 0.215 |
| AAGTTGGA | 0.0438 |
| GCCTTAAA | 0.349 |
| CTTTAGCA | -0.00329 |
| CGGAAGAC | 0.0461 |
| CCATGAGG | -0.211 |
| GCAGAAAA | 0.1 |
| ACCCATGG | -0.2 |
| CGATATTA | 0.0296 |
| CACTATTA | 0.0283 |
| CATCAGAC | -0.00787 |
| ACGCCCAT | -0.153 |
| CGTTAGGA | 0.0432 |
| CGGTTTAA | 0.0367 |
| TCATACGA | 0.0661 |
| CTTTCATC | -0.0692 |
| GAGCTGAC | -0.152 |
| CGCGGCCC | -0.198 |
| GATTCTGC | -0.0101 |
| GTGGTAAA | 0.176 |
| CAGATTCA | 0.18 |
| ACCCTTCC | -0.112 |

| Sequence | PBM E-score |
| --- | --- |
| ATCCCGAT | -0.0565 |
| GCTAATTA | 0.148 |
| ATTGAAAA | 0.104 |
| ACTTCGGC | -0.0943 |
| GCGATCGA | -0.0406 |
| ATCAAACG | 0.0779 |
| AGCTCCCA | -0.179 |
| GTAGAGAA | -0.0212 |
| ATTACTGC | 0.0976 |
| CACGGTCC | -0.0249 |
| CCACTTCA | -0.172 |
| AACATCTA | 0.122 |
| AAAAACTC | 0.0308 |
| CCAGAATA | 0.0922 |
| CCAACTAA | 0.0699 |
| ACCGTGCA | -0.0784 |
| AAATCATC | -0.153 |
| GCCATAGC | -0.178 |
| CCTGTAAC | 0.295 |
| AAAAATGT | 0.213 |
| AGACTCTG | -0.0696 |
| CACTATGA | 0.0446 |
